The text below walks through data of PMC4336329 (PLoS ONE, 2015).

The campaign covered roughly 310,000 compounds. About 14,000 (4.5%) showed an effect of 50% or more. Effects have a minus sign here. The list shows a part of the results.
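Note: peak tail current of the secondary pulse compared with the same well before compound.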

The experiment deals with human ether-à-go-go-related gene (hERG) potassium channel (human, UniProt Q12809). The experiment in a line: primary screen, population patch clamp on CHO cells stably expressing hERG.
human ether-à-go-go-related gene (hERG) potassium channel, sequence (Q12809 whole entry, looked up): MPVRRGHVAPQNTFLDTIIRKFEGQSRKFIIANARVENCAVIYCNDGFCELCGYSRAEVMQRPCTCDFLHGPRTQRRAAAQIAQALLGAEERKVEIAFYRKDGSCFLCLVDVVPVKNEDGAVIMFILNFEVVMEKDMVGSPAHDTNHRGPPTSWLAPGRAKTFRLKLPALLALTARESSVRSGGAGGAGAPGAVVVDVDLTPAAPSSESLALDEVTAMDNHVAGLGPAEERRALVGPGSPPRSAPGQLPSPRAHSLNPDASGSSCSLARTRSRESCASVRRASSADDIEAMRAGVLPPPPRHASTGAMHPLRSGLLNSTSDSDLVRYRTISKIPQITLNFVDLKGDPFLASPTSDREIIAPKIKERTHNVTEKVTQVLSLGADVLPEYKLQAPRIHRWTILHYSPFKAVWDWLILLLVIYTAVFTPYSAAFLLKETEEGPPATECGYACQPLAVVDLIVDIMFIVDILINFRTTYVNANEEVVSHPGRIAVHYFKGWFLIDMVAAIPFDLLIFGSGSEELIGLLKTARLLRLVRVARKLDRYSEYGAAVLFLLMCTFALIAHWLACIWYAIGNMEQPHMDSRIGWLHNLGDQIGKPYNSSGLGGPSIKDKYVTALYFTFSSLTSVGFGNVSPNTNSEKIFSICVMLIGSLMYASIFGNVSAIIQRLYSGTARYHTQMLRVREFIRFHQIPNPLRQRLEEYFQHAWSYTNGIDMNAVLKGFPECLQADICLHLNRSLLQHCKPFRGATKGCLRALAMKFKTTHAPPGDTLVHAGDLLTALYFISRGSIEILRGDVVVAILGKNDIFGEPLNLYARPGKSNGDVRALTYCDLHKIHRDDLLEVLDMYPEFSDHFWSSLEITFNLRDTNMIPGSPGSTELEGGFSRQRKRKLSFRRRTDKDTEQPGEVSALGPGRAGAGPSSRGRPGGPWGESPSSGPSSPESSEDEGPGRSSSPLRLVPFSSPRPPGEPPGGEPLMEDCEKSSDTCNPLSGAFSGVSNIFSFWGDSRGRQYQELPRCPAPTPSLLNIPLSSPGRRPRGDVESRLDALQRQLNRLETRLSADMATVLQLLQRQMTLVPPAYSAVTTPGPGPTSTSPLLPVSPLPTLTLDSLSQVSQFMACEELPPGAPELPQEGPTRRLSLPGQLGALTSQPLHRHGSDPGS
With `Cl.O=C(CNC1CCCCCC1)c1cccs1`, the “hERG current change (%, negative = inhibition) at 10uM” value was determined as 0.333%. Next, `O=C(Nc1ccc(F)cc1F)N1CCN(C/C=C/c2ccccc2)CC1`: -39.9%; `CCC(C)NC(=O)CSc1nc2ccsc2c(=O)n1-c1ccc(OC)cc1` (stereo not drawn): -3.72%; `C/C(=N\NC(=O)c1cc(C)nc2ccccc12)c1cccs1`: -9.87%. Next, `CC(C)(C)n1ncc2c(=O)n(CC(=O)NCc3ccco3)cnc21`: -4.55%; `COc1cccc(OCC(O)CO)c1` (stereo not drawn): 1.15%. With `CC1(C)Cc2cccc(Oc3cc(NN4CCCCC4)c([N+](=O)[O-])cc3[N+](=O)[O-])c2O1`, the “hERG current change (%, negative = inhibition) at 10uM” value stood at 20.8%. For `CNC(=S)N(CCc1c(C)[nH]c2ccc(OC)cc12)Cc1cc(OC)c(OC)c(OC)c1`, the “hERG current change (%, negative = inhibition) at 10uM” value is given as -5.87%.

Consider `COc1ccccc1NC(=S)NC(=O)C1CC1`, for which the “hERG current change (%, negative = inhibition) at 10uM” value is 0.654%.

`Cc1cc(C)cc(OCC(=O)Nc2ccc(N3CCOCC3)cc2N2CCOCC2)c1`: the “hERG current change (%, negative = inhibition) at 10uM” value is -6.54%.

On to `N#CCCn1cnc2ccccc21`, for which the “hERG current change (%, negative = inhibition) at 10uM” value is 16.5%. Regarding `CCN(CC)c1ccc(NC(=S)NC(=O)c2cccs2)cc1`, the “hERG current change (%, negative = inhibition) at 10uM” value turned out to be 2.13%. The value for `CCN(CC)S(=O)(=O)c1ccc(Cl)c(NC(=O)CCCCl)c1` was -43.2%; that for `O=C(O)c1cn(-c2ccccc2)nc1C(=O)O` was 5.7%. Turning to `CC1CC(C)CN(C(=O)C2CC(=O)N(c3ccc(F)cc3)C2)C1` (stereo not drawn), the “hERG current change (%, negative = inhibition) at 10uM” value is -18.7%. As to `Cc1ccc(O)c(NC(=O)/C=C/C(=O)O)c1`, the “hERG current change (%, negative = inhibition) at 10uM” value worked out at 69.3%. Next, `COc1ccc(CNc2nc(SCC(=O)NCc3ccco3)nc3ccccc23)cc1`: -68.9%; `O=C(C1CC1)N1CCCC(c2ccc(Cl)cc2)=N1`: 14.6%; `CCC1CCCCN1C(=O)CCCOc1ccccc1` (stereo not drawn): -16.4%.

For the molecule `CCOC(=O)C1CCN(c2ncnc3c2cnn3C)CC1`, the “hERG current change (%, negative = inhibition) at 10uM” value is recorded as 6.3%. The value for `O=C1N[C@@H](Cc2cn(S(=O)(=O)c3ccc(F)cc3)c3ccccc23)C(=O)N[C@H]1Cc1ccccc1` was 11.2%; that for `COc1ccc(CNC(=O)Cn2ccc([N+](=O)[O-])n2)cc1OC` was 3.22%. Next, `O=C(COC(=O)COc1cccc(Br)c1)Nc1ccc(F)cc1F`: 9.9%. The value for `CS(=O)(=O)N1CCCC(C(=O)N2CCc3ccccc3C2)C1` (stereo not drawn) was 3.18%; that for `CCOc1ccc(N2CC(NC(=O)c3ccc4ccccc4c3)CC2=O)cc1` (stereo not drawn) was -8.16%. As to `COCCN(C(=O)c1ccco1)C(C(=O)NC1CCCC1)c1cccs1` (stereo not drawn), the “hERG current change (%, negative = inhibition) at 10uM” value is -7%.

With `COc1ccc(CCNC(=O)c2cc(C(C)C)on2)cc1OC`, the “hERG current change (%, negative = inhibition) at 10uM” value is given as 3.45%. The value for `CCOC(=O)N1CCC(NC(=O)c2cnn3cccnc23)CC1` was -7.19%; that for `Cc1nc2ccccc2nc(C)c1=NOCc1ccc(C#N)cc1` was -8.15%.

For `Cc1ccc(/C=C/C(=O)O)cc1S(=O)(=O)NCC1CCCO1` (stereo not drawn), the “hERG current change (%, negative = inhibition) at 10uM” value is recorded as 11.7%. Consider `CC(NC(=O)COc1ccccc1)C1COc2ccccc2O1` (stereo not drawn), for which the “hERG current change (%, negative = inhibition) at 10uM” value is -18.9%. The value for `NC(=O)c1ccsc1NC(=O)CSc1nnc2ccccn12` was 12.5%; that for `N#CC1(NC(=O)COC(=O)c2cc(=O)[nH]c3ccccc23)CCCCC1` was 14%. Turning to `CC(C)(C)NC(=O)C1CCN(C(=O)c2ccc(Br)cc2)CC1`, the “hERG current change (%, negative = inhibition) at 10uM” value is on record as -8.88%. Next, `COc1cc(C(=O)Nc2ccc3ccccc3c2)cc(OC)c1OC`: -1.75%. Turning to `COC(=O)N(C)CCCC1(C)C(=O)N(C)c2ccc(O)cc21` (stereo not drawn), the “hERG current change (%, negative = inhibition) at 10uM” value is -10.6%.

For the molecule `C[C@@H]1CC[C@@]2(O[C@H](CCO)C[C@H](O)[C@H]2O)O1`, the “hERG current change (%, negative = inhibition) at 10uM” value stood at 23.2%. The value for `CSc1ccccc1OCc1cc(C(=O)N(C)C2CCCc3ccccc32)no1` (stereo not drawn) was 11.1%. Next, `COC(=O)[C@@H](NC(=O)Nc1ccc(S(N)(=O)=O)cc1)C(C)C`: -1.44%; `CCn1cc(CN2CCC(n3nccc3NC(=O)c3ccccc3C)CC2)cn1`: -58.2%; `O=C(c1ccc(-n2cnnn2)cc1)N(C1CCCCC1)C1CCCCC1`: 4.33%. Next, `COc1ccc(NC(=S)N(Cc2cccnc2)Cc2cc3cc(OC)c(OC)cc3[nH]c2=O)cc1`: 16.2%; `CN(C)CCNC(=O)c1cccc(S(=O)(=O)Nc2ccccc2F)c1`: 12.5%. For the molecule `CN(C)c1ccc(-c2nnn(CC(=O)Nc3ccccc3N3CCOCC3)n2)cc1`, the “hERG current change (%, negative = inhibition) at 10uM” value is recorded as -15.1%. On to `NS(=O)(=O)c1ccc(Nc2ccc3nonc3c2[N+](=O)[O-])cc1`, for which the “hERG current change (%, negative = inhibition) at 10uM” value was 9.07%.
